Publication PMC4336329 (PLoS ONE, 2015)
Screen size: about 310,000 compounds; about 14,000 (4.5%) showed an effect of 50% or more. The effect is printed as a negative number. Some of the results follow.

These compounds were tested against human ether-à-go-go-related gene (hERG) potassium channel (human, UniProt Q12809) (assay: primary screen, population patch clamp on CHO cells stably expressing hERG).
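Note: peak tail current of the secondary pulse compared with the same well before compound.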

human ether-à-go-go-related gene (hERG) potassium channel, sequence (Q12809 whole entry, looked up): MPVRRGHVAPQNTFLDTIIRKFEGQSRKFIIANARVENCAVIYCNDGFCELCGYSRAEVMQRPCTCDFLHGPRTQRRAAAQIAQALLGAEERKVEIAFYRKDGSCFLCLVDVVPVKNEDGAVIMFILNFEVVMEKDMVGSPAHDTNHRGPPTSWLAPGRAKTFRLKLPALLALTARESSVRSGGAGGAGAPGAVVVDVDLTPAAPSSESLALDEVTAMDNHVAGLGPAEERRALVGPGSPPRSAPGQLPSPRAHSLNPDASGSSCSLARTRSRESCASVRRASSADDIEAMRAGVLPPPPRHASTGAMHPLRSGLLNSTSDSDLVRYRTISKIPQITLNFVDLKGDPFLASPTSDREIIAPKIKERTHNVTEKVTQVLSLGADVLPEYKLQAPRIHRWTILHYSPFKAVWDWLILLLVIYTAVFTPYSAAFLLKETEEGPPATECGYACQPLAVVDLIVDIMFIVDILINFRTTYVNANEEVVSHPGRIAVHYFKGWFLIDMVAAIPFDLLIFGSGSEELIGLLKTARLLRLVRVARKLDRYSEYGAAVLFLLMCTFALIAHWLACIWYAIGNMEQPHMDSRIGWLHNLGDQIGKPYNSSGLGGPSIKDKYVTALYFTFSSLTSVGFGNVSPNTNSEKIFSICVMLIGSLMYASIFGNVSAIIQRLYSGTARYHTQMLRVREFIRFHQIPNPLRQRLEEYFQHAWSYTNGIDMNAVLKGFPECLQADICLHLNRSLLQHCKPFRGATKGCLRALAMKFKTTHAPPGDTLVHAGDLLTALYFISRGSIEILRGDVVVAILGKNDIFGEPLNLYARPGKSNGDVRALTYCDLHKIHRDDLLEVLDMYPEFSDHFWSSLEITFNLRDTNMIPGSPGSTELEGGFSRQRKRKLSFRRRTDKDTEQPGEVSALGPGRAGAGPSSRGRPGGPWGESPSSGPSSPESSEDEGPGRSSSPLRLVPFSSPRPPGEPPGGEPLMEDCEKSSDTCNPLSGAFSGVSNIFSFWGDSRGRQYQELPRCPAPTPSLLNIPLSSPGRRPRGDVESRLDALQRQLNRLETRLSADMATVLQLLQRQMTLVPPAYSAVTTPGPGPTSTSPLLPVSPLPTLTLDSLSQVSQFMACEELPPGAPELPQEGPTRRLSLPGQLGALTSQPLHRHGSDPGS

Compound | hERG current change (%, negative = inhibition) at 10uM [%]
COc1ccc(CCNC(=O)c2cc(-c3ccco3)nc3ccccc23)cc1 | 2.98
Cn1c(=O)n(C)c2cc(S(=O)(=O)NCc3ccco3)ccc21 | 7.61
COC(=O)C1C(c2ccccc2)C=CC(c2ccccc2)C1C(=O)O (centres unmarked) | 10.2
CC(O)c1nc2ccccc2n1CCCc1ccccc1 (centres unmarked) | -25.4
CCN(c1ccc(OCC(=O)OCC(=O)c2c(N)n(C)c(=O)n(C)c2=O)cc1)S(=O)(=O)c1ccccc1 | -6.28
COc1ccccc1NC(=S)N(Cc1ccco1)Cc1cc2cc(C)cc(C)c2[nH]c1=O | -9.67
c1ccc(CN2CCN(Cc3ccc4c(c3)OCCO4)CC2)cc1 | -10.6
Cc1cccc(Nc2nc(N)nc(CN3CCN(c4ccccc4)CC3)n2)c1 | -54.5
CC(C)(C)N=C1SCC(C)(/C=N/O)S1 (centres unmarked) | 9.63
CCC(=NCc1ccco1)c1c(O)n(C)c(=O)n(C)c1=O | 19.9
O=C(COC(=O)c1ccccc1C(=O)c1ccc(Cl)c([N+](=O)[O-])c1)NC1CC1 | -3.12
Cc1ccc(OCC(=O)Nc2cc(NC(=O)COc3ccc(C)cc3)cc(C(=O)O)c2)cc1 | 19.8
CN(C)c1ccc(C(C(=O)NC2CCCC2)N(C(=O)c2csnn2)C2CC2)cc1 (centres unmarked) | 0.514
CCc1c(O)nc(SCc2ccc(F)cc2)[nH]c1=O | 17.9
CC(=O)C1=C(C)NC(=O)NC1c1ccc(OC2CCCC2)cc1 (centres unmarked) | -3.14
CCCCn1c(N)c(N(CCOC)C(=O)C2CCN(C(=O)c3ccc(Cl)cc3)CC2)c(=O)[nH]c1=O | 11.5
C=CCn1c(C)cc(C(=O)CSc2nnc(-c3cccc(S(=O)(=O)N(CC)CC)c3)o2)c1C | 1.82
CCOC(=O)C1(S(=O)(=O)c2ccc(Cl)cc2)CCN(Cc2ccc(C)cc2)CC1 | -14.1
COCC1CCN(C(=O)C2CCN(c3nc(-c4ccccc4)nc4c3CCC4)CC2)C1 (centres unmarked) | -76.5
CCCOc1cc2c(C#N)c(N3CCCC3)nc(N)c2c(N)n1 | 22
CN(CC(=O)Nc1ccc2c(c1)OCCO2)S(=O)(=O)c1cccc2cccnc12 | 1.37
O=C(CN(Cc1ccccc1)S(=O)(=O)c1ccccc1)N/N=C/c1ccccc1C(=O)O | 1.91
O=C(OCC(=O)c1ccc[nH]1)C1=COCCO1 | 5.01
